Among all 310,000 compounds or so, about 2,200 (0.71%) showed an effect of 50% or more. The effect is printed as a negative number. This is one part of the list.

These results are taken from publication PMC4336329 (PLoS ONE, 2015).

For the test, the target named is human ether-à-go-go-related gene (hERG) potassium channel (human, UniProt Q12809). As to the kind of experiment: primary screen, population patch clamp on CHO cells stably expressing hERG.
human ether-à-go-go-related gene (hERG) potassium channel, sequence (Q12809 whole entry, looked up): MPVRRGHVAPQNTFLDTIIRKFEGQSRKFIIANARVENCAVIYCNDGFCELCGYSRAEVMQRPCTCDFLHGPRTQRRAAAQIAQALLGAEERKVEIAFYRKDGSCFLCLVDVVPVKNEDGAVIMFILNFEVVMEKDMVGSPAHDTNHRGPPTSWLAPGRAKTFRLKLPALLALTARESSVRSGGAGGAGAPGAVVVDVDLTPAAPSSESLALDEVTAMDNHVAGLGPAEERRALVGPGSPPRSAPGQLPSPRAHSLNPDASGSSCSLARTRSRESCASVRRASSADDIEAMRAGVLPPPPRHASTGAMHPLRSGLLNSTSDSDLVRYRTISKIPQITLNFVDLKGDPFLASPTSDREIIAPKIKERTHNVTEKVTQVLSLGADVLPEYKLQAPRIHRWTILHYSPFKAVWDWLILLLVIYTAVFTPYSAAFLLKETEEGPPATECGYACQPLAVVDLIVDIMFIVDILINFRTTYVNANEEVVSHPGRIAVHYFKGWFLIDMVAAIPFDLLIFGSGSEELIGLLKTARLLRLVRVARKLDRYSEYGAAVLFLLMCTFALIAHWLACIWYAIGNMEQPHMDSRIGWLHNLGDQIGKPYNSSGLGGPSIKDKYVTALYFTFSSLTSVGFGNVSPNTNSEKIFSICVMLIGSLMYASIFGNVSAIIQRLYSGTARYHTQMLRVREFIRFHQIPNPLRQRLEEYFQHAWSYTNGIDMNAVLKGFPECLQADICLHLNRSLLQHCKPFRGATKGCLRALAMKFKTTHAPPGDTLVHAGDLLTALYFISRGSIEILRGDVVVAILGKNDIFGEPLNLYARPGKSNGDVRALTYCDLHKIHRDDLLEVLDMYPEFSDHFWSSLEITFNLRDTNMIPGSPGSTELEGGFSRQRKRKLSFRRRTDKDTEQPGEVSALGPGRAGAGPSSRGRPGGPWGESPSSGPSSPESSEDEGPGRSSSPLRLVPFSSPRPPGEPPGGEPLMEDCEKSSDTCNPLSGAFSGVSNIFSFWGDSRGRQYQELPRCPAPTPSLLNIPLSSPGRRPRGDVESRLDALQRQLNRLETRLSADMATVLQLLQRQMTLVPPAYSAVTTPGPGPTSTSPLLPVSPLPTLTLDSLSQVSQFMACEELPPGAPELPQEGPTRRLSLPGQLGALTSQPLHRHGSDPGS
As to `Cc1nc(CSc2nnc(Nc3cccc(C)c3C)s2)cs1`, the “hERG current change (%, negative = inhibition) at 1uM” value came to 14.4%. To `Cc1cccc(/C=N/NC(=O)c2cc(Br)ccc2OCc2ccccc2)n1` belongs 8.57%; to `CCn1c(NCc2ccc(N(C)C)cc2)nc2ccccc21`, -11.3%; to `O=C(NCc1ccncc1)/C(=C/c1cccc([N+](=O)[O-])c1)NC(=O)c1ccccc1`, -31.2%. The value for `O=C(CCc1nnc(COc2ccccc2)o1)NCc1ccccc1` was 12.9%; that for `CC1(C)C(c2cccs2)=[N+]([O-])C2(CCCCC/C2=N\O)N1O` (stereo not shown) was 12.7%. To `CSCC[C@@H](C(=O)NCc1cccs1)N1Cc2ccccc2C1=O` belongs 3.43%; to `COC(=O)C(O)(c1ccc(N(C)C)cc1)C(F)(F)F` (stereo not shown), 11.5%.

Consider `NNC(=S)Nc1ccc(OC(F)(F)F)cc1`, for which the “hERG current change (%, negative = inhibition) at 1uM” value is listed as 11.3%. The value for `CNC(=O)CN1C(=O)C2C3C=CC(C3)C2C1=O` (stereo not shown) was 7.77%; that for `COc1ccccc1NS(=O)(=O)c1cc(C(=O)NCCC(C)C)ccc1F` was -1.98%.

Turning to `CC(C)CCNC(=O)CN(Cc1ccc2c(c1)OCO2)C(=O)Cn1nnc(-c2cccs2)n1`, the “hERG current change (%, negative = inhibition) at 1uM” value turned out to be 3.51%. In the case of `Cc1ccccc1C1CCCN(C(=O)c2cc(COc3c(F)cccc3F)on2)C1` (stereo not shown), the “hERG current change (%, negative = inhibition) at 1uM” value came to 11.3%.

With `Cc1ccc2nc3c(cc(C(=O)NCCc4ccccc4)c(=N)n3CC3CCCO3)c(=O)n2c1` (stereo not shown), the “hERG current change (%, negative = inhibition) at 1uM” value was -84%. The value for `C/C=C/C(=O)N1CC2(CC(c3cccc(NC(=O)CC(c4ccccc4)c4ccccc4)c3)=NO2)C[C@H]1C(N)=O` (stereo partly shown) was 12.2%; that for `Cn1c(=O)c2c(=O)cc(NNC(=O)C(C)(C)C)[nH]c2n(C)c1=O` was 8.35%; that for `O=C(Nc1ccc(F)c(Cl)c1)c1cccnc1` was -27.9%.

On to `CCN1CCCC1CNS(=O)(=O)c1ccc(Br)cc1.Cl` (stereo not shown), for which the “hERG current change (%, negative = inhibition) at 1uM” value is given as -5.39%. To `Cc1cc2nc(C3CCN(Cc4nnnn4Cc4ccccc4)CC3)[nH]c2cc1C` belongs -50.7%; to `Cc1ccc(S(=O)(=O)Nc2c(C)nn(C)c2C)cc1`, 4.3%; to `N#Cc1c(-c2ccco2)ccn(Cc2ccc(F)cc2)c1=O`, 2.5%.

For the compound `CCc1nnc(NC(=O)CSc2nc3c(c(=O)n2CC)SC(C)C3)s1` (stereo not shown), the “hERG current change (%, negative = inhibition) at 1uM” value amounted to 14.2%.

As for `O=C(CCC(=O)NCCCc1ccccc1)NCCCc1ccccc1`, the “hERG current change (%, negative = inhibition) at 1uM” value stood at 13.2%.

For `CC(C)CNS(=O)(=O)c1ccc(CCC(=O)Nc2ccc3c(c2)OCO3)cc1`, the “hERG current change (%, negative = inhibition) at 1uM” value was found to be 6.96%. The value for `CC(=O)N/C(=C\c1ccc(C)o1)C(=O)NCc1ccccc1` was 9.09%; that for `CCCC1(C(=O)OCC)NC(c2ccc(N(C)C)cc2)C2C(=O)N(c3ccc(OCC)cc3)C(=O)C21` (stereo not shown) was 1.19%; that for `Cc1cc(OCc2ccc(C(=O)NN=C3CCCC3)cc2)ccc1Cl` was 6.91%. The value for `Cc1cccc(NC(=O)c2nc[nH]c2C(=O)N[C@@H](CC(C)C)C(=O)OC(C)(C)C)c1` was 15.1%; that for `Cc1ccc[n+](C(C)C(=O)c2ccc(Cl)cc2)c1.[Br-]` (stereo not shown) was 14.7%; that for `CCOCCCN1CC(C(=O)NCc2ccc3c(c2)OCO3)CC1=O` (stereo not shown) was 9.3%. The value for `CCN(CC)c1ccc(-c2sc(Nc3ccccc3)n[n+]2-c2ccc(F)cc2)cc1.[Cl-]` was -9.37%; that for `Cc1ccc(CNC(=O)CSc2ncn[nH]2)cc1` was 19%; that for `CCCC(=O)Nc1ccc2oc(-c3ccc(OC)c(Br)c3)nc2c1` was 15.8%.

With `O=[N+]([O-])c1ccccc1N/N=C/c1c[nH]c2ccccc12`, the “hERG current change (%, negative = inhibition) at 1uM” value turned out to be 13.8%. As to `CN(CCCN1CCCCC1)C(=O)c1cc(COc2ccc(F)cc2F)on1`, the “hERG current change (%, negative = inhibition) at 1uM” value is listed as -7.96%. To `O=c1[nH]c(N/N=C/c2ccccc2)nc2ccccc12` belongs -4.64%; to `CN(c1ccccc1)S(=O)(=O)c1cccc(NC(=O)COc2cccc([N+](=O)[O-])c2)c1`, -10.2%; to `CCOC(=O)c1c(C)n(C)c2ccc(OC)c(NC(=O)CN3CCC(C(=O)OCC)CC3)c12`, 3.42%.

As to `Cc1[nH]c2ccccc2c1SCC(=O)N1CCCCCC1`, the “hERG current change (%, negative = inhibition) at 1uM” value worked out at 1.1%. To `COc1cccc(/C=C/C(=O)OCC(=O)NCCNC(=O)COC(=O)/C=C/c2cccc(OC)c2)c1` belongs 10.7%.

As for `Cc1cc(NC(=O)CSc2nc3c(c(=O)n2-c2ccc(Cl)cc2)SCC3)no1`, the “hERG current change (%, negative = inhibition) at 1uM” value was -1.73%. To `CC(C)n1cnnc1SCC(=O)Nc1ccc(Br)cc1F` belongs 10.9%; to `O=C(CCS(=O)(=O)c1ccccc1)Nc1ccccn1`, 16.8%; to `O=C(O)CCC(=O)Nc1ccc(F)cc1`, 9.35%. Regarding `CCn1c(SCC(=O)Nc2nc3ccc(OC)cc3s2)nnc1-c1ccoc1C`, the “hERG current change (%, negative = inhibition) at 1uM” value turned out to be 7.83%. The value for `O=C(OCc1ccc(F)cc1)c1ccc2ccccc2n1` was -15%. The value for `CCn1c(C(C)NC(C)=O)nc2ccccc21` (stereo not shown) was 9.51%; that for `COC(=O)C1=C(C)N(Cc2ccccc2)C(=NCCc2cccnc2)N[C@H]1c1ccccc1` was -23.2%. The value for `C=CCc1ccc(OCCOc2cccc3ccc(C)nc23)c(OC)c1.O=C(O)C(=O)O` was 9.57%; that for `CCNC(=S)NNC(=O)c1cc(C)nc2ccccc12` was 5.65%; that for `COc1ccccc1C1CCN(c2cc(O)ccc2[N+](=O)[O-])CC1` was 9.54%.

With `O=C(Nc1ccc(O)cc1)C1CCCO1` (stereo not shown), the “hERG current change (%, negative = inhibition) at 1uM” value is listed as 12.5%. `COc1cc(/C=N/NC(=O)c2c(C)nnn2-c2nonc2N)ccc1O`: the “hERG current change (%, negative = inhibition) at 1uM” value was 2.94%. For `Cc1ccc(NC(=O)COC(=O)c2ccc([N+](=O)[O-])o2)cc1S(=O)(=O)N1CCCCCC1`, the “hERG current change (%, negative = inhibition) at 1uM” value was found to be 3.92%. `CNC(=O)CNC(=O)Nc1ccc(C)cc1`: the “hERG current change (%, negative = inhibition) at 1uM” value is on record as 9.47%. To `Cl.O=C(O)c1ccc(Nc2nc(-c3cccnc3)nc3ccccc23)cc1` belongs 11.7%. The value for `O=C(NCCC1=CCCCC1)C1CCN(S(=O)(=O)c2cccc3cccnc23)CC1` was 5.01%.

With `O=C(COC(=O)c1cccc(O)c1)NCc1ccc2c(c1)OCO2`, the “hERG current change (%, negative = inhibition) at 1uM” value was determined as 9.24%. The value for `O=C(CN(Cc1cccs1)C(=O)CNS(=O)(=O)c1ccc(F)cc1)NCc1ccco1` was 1.86%.

`O=C(CSc1cccc(C(F)(F)F)c1)NC(=O)NCc1ccco1`: the “hERG current change (%, negative = inhibition) at 1uM” value amounted to 8%. The value for `CC(C)CCNC(=O)C1CCN(S(=O)(=O)c2ccc3nc4c(c(C(=O)O)c3c2)CCCCC4)CC1` was 29.8%; that for `COCCn1nnnc1CN1CCC(O)(c2cccc(C(F)(F)F)c2)CC1.Cl` was 10.4%; that for `CC(Nc1nc(N2CCN(S(C)(=O)=O)CC2)nc2ccccc12)c1ccccc1` (stereo not shown) was -14%. The value for `CC1CCN(C(C)C(=O)Nc2ccc(S(=O)(=O)N3CCCC3)cc2)CC1` (stereo not shown) was 2.91%. To `CCOC(=O)N1CCC(NC(=O)CSCc2nc(-c3ccc(OC)cc3)oc2C)CC1` belongs 5.34%. Regarding `Cc1ccc(-c2csc(NC(=O)CCNC(=O)c3ccccc3Cl)n2)cc1`, the “hERG current change (%, negative = inhibition) at 1uM” value came out at 13.6%. For the compound `CC1CCCN(CC(=O)NC(=O)NC2CCCCC2)C1` (stereo not shown), the “hERG current change (%, negative = inhibition) at 1uM” value is listed as 9.06%. The value for `CC(=O)Nc1ccc(NS(=O)(=O)c2ccc(Cl)s2)cc1` was -4.63%. To `CCCCCCC(=O)Nc1nc(C)c(-c2csc(Nc3cc(Cl)ccc3C)n2)s1` belongs 9.86%.

Consider `O=S(=O)(c1cc(Cl)ccc1Cl)N1CC2CCCN2c2ccc(C(F)(F)F)cc21` (stereo not shown), for which the “hERG current change (%, negative = inhibition) at 1uM” value is -5.66%. To `Cn1c(=O)c2c(nc(SCC(=O)NCC3CCCO3)n2C)n(C)c1=O` (stereo not shown) belongs 4.86%; to `N#CC(C#N)=C1NC2(CCCC2)Cc2ccccc21`, 6.74%. To `Cc1cc(C)nc(NC(=O)c2cc(Br)ccc2Cl)n1` belongs 13.8%; to `COc1ccccc1S(=O)(=O)Cc1ccc(C(=O)NC2CCCCCC2)o1`, 8.53%; to `CC(CCc1ccccc1)NC(=O)CCCn1ncn2c(cc3occc32)c1=O` (stereo not shown), -4.2%.

For `O=C(CCOc1ccccc1)Nc1ccccc1F`, the “hERG current change (%, negative = inhibition) at 1uM” value was 15.6%. The value for `CC1CC(C)CN(CCCNC(=O)c2ccc(CNS(=O)(=O)c3ccc(F)cc3)cc2)C1` (stereo not shown) was 6.27%; that for `CN(c1ccc(C(=O)Nc2ccc(CC#N)cc2)cc1)S(C)(=O)=O` was 16.1%. For the compound `O=C(Cn1c(-c2ccco2)nc2ccccc21)N1CCCCC1`, the “hERG current change (%, negative = inhibition) at 1uM” value was -2.25%. Take `COc1cccc(C2C=C(Nc3ccccc3)C(=O)N2c2ccccc2)c1` (stereo not shown): the “hERG current change (%, negative = inhibition) at 1uM” value is 0.332%.

In the case of `COc1cc(/C=C(\C#N)C(=O)NCC2CCCO2)ccc1OCCC(C)C` (stereo not shown), the “hERG current change (%, negative = inhibition) at 1uM” value amounted to 9.62%. With `O=C(Nc1cccc(F)c1)C1CCN(C(=O)c2ccccc2Cl)CC1`, the “hERG current change (%, negative = inhibition) at 1uM” value was found to be 2.46%. The value for `Cc1cccc(-c2nc(CN3CCN(C(=O)C4CCCO4)CC3)cs2)c1` (stereo not shown) was 9.39%; that for `CCN(C(=O)c1cc(S(=O)(=O)N2CCc3ccccc32)cn1C)c1ccccc1` was 3.92%; that for `CN(C)CCCN1c2ccccc2Sc2ccc(Cl)cc21.Cl` was 5.56%. With `CCN(Cc1ccc2c(c1)OCO2)C(=O)CSc1ncnc2sccc12`, the “hERG current change (%, negative = inhibition) at 1uM” value worked out at 9.42%. The value for `Cc1[nH]n(-c2ccccc2)c(=S)c1C=NCCCN=Cc1c(C)[nH]n(-c2ccccc2)c1=S` was 13%; that for `O=C(Nc1ccccc1N1CCN(c2ccccc2)CC1)c1ccccc1F` was 9.62%.
